The campaign covered roughly 360,000 compounds. About 17,000 (4.7%) were called active. Inconclusive means that the source gave no clear call. Such entries were picked first, then a sample of the others. No stated cut-off is given here; in the data, active means activity change below about -50%; inconclusive means mostly about -30% to -49%; inactive means weaker than that.
Test: qHTS for Inhibitors of Inflammasome Signaling: IL-1-beta AlphaLISA Primary Screen
Conditions: THP-1 LPS/ATP IL-1B secretion, 16 h; at 57.5 µM, hits give low values
Outline: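 Secreted IL-1B measured by AlphaLISA bead assay after 16 h compound exposure of THP-1 cells; compounds (final up to 57.5 uM) added 1 h before LPS (250 ng/mL) and ATP (1.25 mM) stimulation; lower signal means less secretion.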
For `Cc1ccc(CNS(=O)(=O)c2ccc(C(F)(F)F)cc2)n1C`, the activity change was inconclusive: -31.7%.
In the case of `CCOC(=O)c1cccc(NC(=O)Cn2nc(C)n3cccc3c2=O)c1`, the activity change is reported as inactive: -8.37%.
With `Cc1ccc(Cn2c(C(CO)Nc3nc(-c4ccc(Cl)c([N+](=O)[O-])c4)cs3)nc3ccccc32)cc1` (stereo not drawn) the activity change was inconclusive: -42.1%.
For `Cc1cc(Oc2ccc(N)cn2)cc(C)c1Cl`, the activity change was inactive: -21.9%.
For `CC(=O)Nc1ccc(NC(=O)c2ccc(CSc3ccccc3)o2)cc1`, the activity change was inconclusive: -37.9%.
For `Cc1cc(C)cc(-n2ccnc2SCC(=O)Nc2ccc3c(c2)OCCO3)c1`, the activity change was inconclusive: -31.4%.
For `Cc1ccc(-n2nc3c(c2NC(=O)c2ccc(F)c(F)c2)CS(=O)(=O)C3)cc1`, the activity change was inconclusive: -30.9%.
For `OCc1csc(=Nc2ccccc2)n1-c1ccccc1`, the activity change was inconclusive: -30.7%.
For `CN(C)CC1CCC/C(=C\c2ccc(OC(=O)/C=C/c3ccccc3)cc2)C1=O` (stereo not drawn), the activity change was active: -111%.
In the case of `Cc1nonc1CC(=O)N1CCc2c([nH]c3ccccc23)C1c1ccccc1F` (stereo not drawn), the activity change is reported as inconclusive: -45.5%.
For `CCNc1nc(NCC)nc(N/N=C/c2ccc(Br)cc2)n1`, the activity change was inconclusive: -42.5%.
For `Cc1ccc(S(=O)(=O)N2C3CCCCC3O[C@H]2CC(=O)c2ccc(F)cc2)cc1` (stereo partly drawn), the activity change was inconclusive: -30.4%.
In the case of `O=C(Nc1ccc(SC(F)F)cc1)C12CCC(CC1)C2`, the activity change is reported as inconclusive: -42.5%.
For `Cc1ccc(NC(=O)C(OC(=O)c2ccccc2Cl)c2ccccc2)cc1Cl` (stereo not drawn), the activity change was inconclusive: -36.3%.
With `O=C(CCNc1ccc(Cc2ccncc2)cc1)c1cccc([N+](=O)[O-])c1` the activity change was active: -109%.
With `CCOC(=O)c1c(NC(=O)/C=C/C(=O)O)sc(C)c1-c1ccc(C)c(C)c1` the activity change was active: -94.6%.
For `CN(C)c1ccc(C2Nc3ccccc3C(=O)N2NS(C)(=O)=O)cc1` (stereo not drawn), the activity change was inconclusive: -42.1%.
With `Cc1cc(CNC(=O)COc2ccc(F)cc2F)c2ccccc2n1` the activity change was inactive: -16.2%.
With `COCCNC(=O)C1(C)Cc2c(-c3ccc(NC(C)=O)cc3)ccnc2O1` (stereo not drawn) the activity change was inactive: 0%.
For `CN(c1ccccc1C(=O)Nc1cccc(Br)c1)S(=O)(=O)c1ccccc1`, the activity change was inconclusive: -33.1%.
With `COc1ccc(C(CNC(=O)C(C)Oc2ccc(Br)cc2)N2CCCC2)cc1` (stereo not drawn) the activity change was inconclusive: -46.6%.
In the case of `O=C(CCC(=O)NNC(=O)COc1ccc(Br)cc1Br)NCc1ccccc1`, the activity change is reported as inactive: -8.8%.
In the case of `CCOc1ccc(Br)cc1CSC(=N)N`, the activity change is reported as inconclusive: -35%.
With `CCN(CC(=O)Nc1ccc(NC(C)=O)cc1)C(=O)C1CC(=O)N(c2ccc3c(c2)OCCO3)C1` (stereo not drawn) the activity change was inactive: -4.3%.
In the case of `CN(CC(=O)Nc1cccc(F)c1)C(=O)c1ccc(-c2ccc(Cl)cc2)o1`, the activity change is reported as inconclusive: -39.2%.
For `O=C(NC1CCCC1)C(c1ccncc1)N(CCCN1CCOCC1)C(=O)c1ccc(-c2ccccc2)[nH]1` (stereo not drawn), the activity change was inconclusive: -36.8%.
With `Cn1c(=O)c2c(nc(NCCNC(=O)c3ccco3)n2Cc2ccccc2)n(C)c1=O` the activity change was inactive: 0%.
For `c1cc2c(cn1)cnc1cscc12`, the activity change was inconclusive: -33.5%.
For `Cc1cc2nn(-c3cccc4ccccc34)nc2cc1NC(=O)c1cccs1`, the activity change was inconclusive: -48.6%.
For `N#Cc1ccccc1Sc1ccccc1C(=O)OCC(=O)N1CCN(C(=O)c2ccco2)CC1`, the activity change was inconclusive: -45%.
In the case of `O=[N+]([O-])c1nn(-c2ccc(Cl)cc2)n(O)c1=NCc1ccncc1`, the activity change is reported as inconclusive: -39.5%.
In the case of `O=C(CN1c2ccccc2Sc2ccccc21)NNC(=O)Nc1ccc(Cl)c(Cl)c1`, the activity change is reported as active: -92%.
For `Cc1cc(C)c2c(N)c(C(=O)Nc3ncc(C)s3)sc2n1`, the activity change was inactive: -19.4%.
In the case of `Cc1ccc(NC(=O)COC(=O)Cn2cnc3c2c(=O)n(C)c(=O)n3C)cc1Cl`, the activity change is reported as inactive: 8.55%.
With `Cc1ccnc(NS(=O)(=O)c2ccc(NC(=O)c3c(-c4ccccc4Cl)noc3C)cc2)n1` the activity change was inactive: 13.2%.
In the case of `CCN(c1ccccc1)S(=O)(=O)c1ccc(C(=O)NC2CCN(Cc3ccccc3)CC2)cc1`, the activity change is reported as inconclusive: -46.3%.
With `CCn1c(-c2ccc(C(C)(C)C)cc2)n[nH]c1=S` the activity change was inactive: -3.62%.
In the case of `C=CC(=O)NC(NC(=O)C=C)c1ccccc1F`, the activity change is reported as inconclusive: -30.3%.
With `C/C(CC(=O)Nc1ccc(Cl)cn1)=N\NC(=O)Cc1cccs1` the activity change was inactive: 26.3%.
In the case of `ClCc1csc(-c2ccc(Cl)cc2)n1`, the activity change is reported as inconclusive: -37.2%.
In the case of `O=C(CC1OCC2CCCN2C1=O)Nc1ccc([N+](=O)[O-])cc1` (stereo not drawn), the activity change is reported as inconclusive: -30.6%.
For `CCN(c1ccccc1)S(=O)(=O)c1ccc(OC)c(NC(=O)Cc2ccc(F)cc2)c1`, the activity change was inconclusive: -37.4%.
In the case of `C/C(=N\NC(=O)c1cccc(N/N=C(\C)c2ccc([N+](=O)[O-])cc2)c1)c1ccc([N+](=O)[O-])cc1`, the activity change is reported as inconclusive: -34.6%.
For `Cc1ccccc1[C@@]1(C)ON(c2ccccc2C(F)(F)F)C1=O`, the activity change was active: -84.8%.
With `Cc1occc1C(=O)N/N=C/c1ccc(OCc2ccccc2)cc1` the activity change was inconclusive: -33.8%.
In the case of `COc1ccc(C2C3=C(CC(C)(C)CC3=O)Oc3ncn4nc(-c5ccccc5)nc4c32)cc1` (stereo not drawn), the activity change is reported as inactive: -7.75%.
With `COC(=O)c1cc2c(ccn2-c2ccc(F)cc2)n1Cc1ccc(C#N)cc1` the activity change was inconclusive: -46%.
In the case of `O=[N+]([O-])c1ccc(N/N=C/c2sc(N3CCOCC3)nc2-c2ccccc2)c(S(=O)(=O)Nc2ccc(Cl)cc2)c1`, the activity change is reported as inconclusive: -46.9%.
For `CCOC(=O)/C=C/C(=O)OCC(=O)Nc1ccc([N+](=O)[O-])cc1`, the activity change was inconclusive: -39.1%.
With `COc1ccc(/C(O)=C/c2nc3ccccc3n(-c3ccccc3)c2=O)cc1` the activity change was inconclusive: -33.5%.
For `N#C/C(=C\c1c(N2CCCCC2)nc2ccccn2c1=O)S(=O)(=O)c1ccccc1`, the activity change was inactive: -26.8%.
With `COc1ccccc1OCc1ccc(C(=O)c2ccccc2)cc1` the activity change was inconclusive: -37.5%.
For `O=C(NN1C(=O)c2ccccc2NC1c1ccccn1)c1ccc(Br)cc1` (stereo not drawn), the activity change was inconclusive: -38.2%.
With `Fc1ccc(CSc2nc3ccccc3[nH]2)cc1` the activity change was active: -63.2%.
In the case of `Cc1c(C(c2ccccc2Br)c2c(C)n(C)n(-c3ccccc3)c2=O)c(=O)n(-c2ccccc2)n1C`, the activity change is reported as inactive: -7.19%.
In the case of `CCN(CC)S(=O)(=O)c1ccc(C(=O)NCc2cccs2)cc1`, the activity change is reported as inconclusive: -38.2%.
With `Nc1nc2c(c(=O)[nH]1)C(c1cccc3ccccc13)C1=C(N2)c2ccccc2C1=O` (stereo not drawn) the activity change was inconclusive: -39%.
In the case of `COc1ccc(OC)c(C2=NS(=O)(=O)N(C)C(C(=O)NCc3ccco3)=C2)c1`, the activity change is reported as inactive: 18.8%.
With `CCn1c(SCC(=O)Nc2cc(C)on2)nnc1-c1ccc(S(=O)(=O)N2CCN(C)CC2)cc1` the activity change was inconclusive: -33.7%.
For `COc1ccc(-c2cc3c(=O)n(CC(=O)Nc4ccc(C(C)=O)cc4)ncn3n2)cc1`, the activity change was inactive: -21.8%.
With `CCC(c1nnnn1CCc1ccccc1)N(Cc1ccco1)Cc1cc2c(C)ccc(C)c2[nH]c1=O` (stereo not drawn) the activity change was inconclusive: -43.7%.
In the case of `c1cnc(N2CCN(Cc3c[nH]c4ccccc34)CC2)nc1`, the activity change is reported as inconclusive: -42.9%.
With `COc1cccc(-c2c(-c3ccccc3OC)ncn2Cc2cccc(-c3ccccc3)c2)c1` the activity change was inconclusive: -37.7%.
For `COc1ccc(CC2(CO)CCN(C(C)COc3ccccc3)CC2)cc1` (stereo not drawn), the activity change was inconclusive: -38.3%.
In the case of `COc1c(C(=O)Nc2ccc(Cc3ccncc3)cc2)ccc2ccccc12`, the activity change is reported as inactive: -14.1%.
In the case of `Cc1ccc(Cl)cc1-c1cc(C(=O)NCc2cccc(Cl)c2)[nH]n1`, the activity change is reported as active: -50.7%.
With `O=C(Nc1ccc2nc(-c3ccco3)c(-c3ccco3)nc2c1)N1CCCCCC1` the activity change was inconclusive: -37.6%.
For `Nc1ccc(S(=O)(=O)c2ccc(NC(=O)c3cccnc3)cc2)cc1`, the activity change was inconclusive: -38.6%.
With `CN(Cc1ccccc1)C(=O)c1ccc(NC(=O)Cc2cccc(NC(=O)C3CCN(C(=O)C4CCC4)CC3)c2)cc1` the activity change was inactive: -4.87%.
In the case of `Cc1ccc(C(OCC(O)CN2CCCCC2CO)c2ccccc2)cc1` (stereo not drawn), the activity change is reported as inconclusive: -43.6%.
In the case of `O=S1(=O)N[C@H](Cc2ccccc2)COc2cccc(N3CCSCC3)c21`, the activity change is reported as inactive: -8.54%.
For `COc1ccc(-c2noc(CSc3nnc(Cc4ccccc4)n3-c3ccc(Cl)cc3)n2)cc1`, the activity change was inconclusive: -37.6%.
With `C=CCN1C(c2ccc(Br)cc2)=CS/C1=C(\C#N)c1nnc(N2CCOCC2)n1-c1ccccc1` the activity change was active: -73.4%.
For `O=C(NCCC(=O)N1CCN(S(=O)(=O)c2ccccc2Cl)CC1)Nc1ccccc1`, the activity change was inconclusive: -40.8%.
In the case of `CC1=CN2C(=N)/C(=C/c3ccc(Sc4ccc(C)cc4)o3)C(=O)N=C2S1`, the activity change is reported as active: -58.4%.
In the case of `CCN(CC)CCN(Cc1cc2cc(C)ccc2[nH]c1=O)C(=S)Nc1ccccc1`, the activity change is reported as inconclusive: -46.4%.
With `CC12CCC(C/C1=N/OC(=O)c1cccc([N+](=O)[O-])c1)C2(C)C` (stereo not drawn) the activity change was inactive: 21.2%.
For `O=C(N/N=C/c1cccc([N+](=O)[O-])c1)C1CC1c1ccccc1` (stereo not drawn), the activity change was inconclusive: -44.7%.
In the case of `COc1ccccc1-c1c(C)nn2c(N3CCC4(CC3)OCCO4)cc(C)nc12`, the activity change is reported as inactive: -27.5%.
For `CCN(CC)C(=O)Oc1ccc2ccccc2c1Br`, the activity change was active: -59.6%.
With `COc1ccc(NC(=O)c2ccc3ccccc3n2)cc1S(=O)(=O)N1CCCCC1` the activity change was inconclusive: -46.3%.
For `O=C(Nc1cccc(S(=O)(=O)NC2=NCCCCC2)c1)c1cc(-c2ccncc2)nc2ccccc12`, the activity change was inconclusive: -30.2%.
For `COc1ccc(/C=C/C(=O)N2CCN(c3ccccc3)CC2)cc1S(=O)(=O)N1CCOCC1`, the activity change was inactive: -17%.
On the % scale 0 is the no-effect control and ±100 the full control effect.
